Reference: PubChem BioAssay AID588855 (National Center for Advancing Translational Sciences (NCATS), 2011)
Out of some 410,000 compounds screened, about 5,000 (1.2%) were called active. The shares of active, inactive and inconclusive entries below differ from those in the screen. Calls follow the shape of the dose curve; as a rule, active = well fitted inhibition curve with a large enough effect; inconclusive = small, poorly fitted or top-dose-only effect; inactive = no such curve, though single readings can be large or run the other way. Potencies of inconclusive entries are doubtful fits and often do not repeat.

Experiment: qHTS for Inhibitors of TGF-b; also: nearly all actives have a fitted effect of over 65% in size
Settings: HepG2 CAGA-GFP TGF-b/SMAD3 reporter, GFP fluorescence, 18 h, TGF-beta stimulated, 500 pg/mL final; series mostly up to 46.1 µM
Method in brief: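 First, reporter cells (HEPG2 CAGA-GFP) rested 2 h at 37 degrees C. Next, compounds were pinned in and TGF-beta added to 500 pg/mL final. After 18 h, GFP was imaged per cell and summed per well.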
Potency is read from the fitted curve at half-maximal effect; tags tell the direction and shape of the fitted curve.

SMILES	Potency
CCc1ccc(C(=O)c2cn(CC(=O)Nc3cccc(OC)c3)c3ccc(OC)cc3c2=O)cc1	inconclusive: 14.1 µM [inhibitor, partial curve, poor fit]
COc1ccc(CN2CCN(CCSc3ccc(C)cc3)CC2)c(OC)c1OC	inconclusive: 14.1 µM [inhibitor, single point]
COc1cc(/C=N/NC(=O)COc2c(C)cc([N+](=O)[O-])cc2C)ccc1OC(=O)c1ccccc1Br	inconclusive: 35.5 µM [inhibitor, single point]
COc1ccc(NC(=O)CSc2nc3[nH]c(=O)cc(O)c3s2)c(OC)c1	inconclusive: 31.6 µM [inhibitor, single point]
COc1ccc(/C=C/c2nccc3ccccc23)cc1OC	inconclusive: 0.562 µM [inhibitor, full curve, poor fit]
CCOC(=O)c1c(COc2ccccc2)oc2ccc(O)cc12	inconclusive: 12.6 µM [inhibitor, partial curve, poor fit]
CC1=NOC(=O)/C1=C\c1ccc2c(c1)OCO2	inconclusive: 35.5 µM [inhibitor, single point]
CN(C)CCCN(C(=O)COc1ccccc1)c1nc2ccc(Cl)cc2s1	inconclusive: 11.2 µM [inhibitor, partial curve, poor fit]
O=C(Nc1ccc(Br)cc1)c1ccc(F)c(S(=O)(=O)NCc2cccs2)c1	inconclusive: 35.5 µM [inhibitor, single point]
CCCCOc1ccc(-c2nn(-c3ccccc3)cc2C2NC(=O)NC(C)=C2C(=O)OCC)cc1 (stereo not drawn)	inconclusive: 35.5 µM [inhibitor, single point]
CCOc1cc(Br)ccc1S(=O)(=O)NCc1ccccc1	inactive
O=C(Nc1ccc(OCc2ccccc2Cl)cc1)c1cccnc1	inactive
O=C(Nc1cccc(/C=C/c2ccccn2)c1)c1ccc(-n2cncn2)cc1	inactive
Cc1cc(C(F)(F)F)n2nc(-c3ccc(Br)cc3)cc2n1	inconclusive: 0.708 µM [inhibitor, full curve, poor fit]
CC(C)N1CCN(c2ccc(OCC3COC(Cn4cncn4)(c4ccc(Cl)cc4Cl)O3)cc2)CC1 (stereo not drawn)	inactive
COc1ccccc1N1CCN(C(=O)c2cccc(S(=O)(=O)N3CCCCCC3)c2)CC1	inconclusive: 35.5 µM [inhibitor, single point]
CCCC(/C=C/c1ccc(OC(C)=O)cc1)=C1/c2ccccc2C(=O)N1c1ccccc1	inconclusive: 25.1 µM [inhibitor, single point]
Cc1cccc(Cn2c(=O)c3c(nc4n3CCCN4Cc3ccccc3)n(C)c2=O)c1	inconclusive: 35.5 µM [inhibitor, single point]
